# Experimental data from PubChem BioAssay AID504332 (National Center for Advancing Translational Sciences (NCATS), 2011).
# Among all 350,000 compounds or so, about 31,000 (8.9%) were called active. The shares of active, inactive and inconclusive entries below differ from those in the screen. Calls come from the whole dose curve; as a rule, active = well fitted inhibition curve with a large enough effect; inconclusive = small, poorly fitted or top-dose-only effect; inactive = no such curve, though single readings can be large or run the other way. A potency beside an inconclusive call is a rough fit, not a confirmed value.
# Biological target: Histone-lysine N-methyltransferase EHMT2 (Homo sapiens) (UniProt Q96KQ7)
# Assay: qHTS Assay for Inhibitors of Histone Lysine Methyltransferase G9a; note: nearly all actives have a fitted effect of over 75% in size
# Settings: G9a H3K9 monomethylation, AlphaScreen, 2 h; activity, negative = inhibition: at 59 µM (top of the series) unless noted
# Procedure, shortened: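 G9a (20 nM) was preincubated 15 min with compound, then reacted 2 h at room temperature with 500 nM biotin-H3K9 peptide and 20 µM SAM. Monomethyl-H3K9 detected by AlphaScreen using anti-H3K9me1 antibody.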
# % is set by controls: 0 for no effect and ±100 for the full control effect; potency is the fitted concentration of half-maximal effect; tags give direction and shape of the fitted curve.
# Sequence of UniProt Q96KQ7 (Q96KQ7 whole entry, looked up): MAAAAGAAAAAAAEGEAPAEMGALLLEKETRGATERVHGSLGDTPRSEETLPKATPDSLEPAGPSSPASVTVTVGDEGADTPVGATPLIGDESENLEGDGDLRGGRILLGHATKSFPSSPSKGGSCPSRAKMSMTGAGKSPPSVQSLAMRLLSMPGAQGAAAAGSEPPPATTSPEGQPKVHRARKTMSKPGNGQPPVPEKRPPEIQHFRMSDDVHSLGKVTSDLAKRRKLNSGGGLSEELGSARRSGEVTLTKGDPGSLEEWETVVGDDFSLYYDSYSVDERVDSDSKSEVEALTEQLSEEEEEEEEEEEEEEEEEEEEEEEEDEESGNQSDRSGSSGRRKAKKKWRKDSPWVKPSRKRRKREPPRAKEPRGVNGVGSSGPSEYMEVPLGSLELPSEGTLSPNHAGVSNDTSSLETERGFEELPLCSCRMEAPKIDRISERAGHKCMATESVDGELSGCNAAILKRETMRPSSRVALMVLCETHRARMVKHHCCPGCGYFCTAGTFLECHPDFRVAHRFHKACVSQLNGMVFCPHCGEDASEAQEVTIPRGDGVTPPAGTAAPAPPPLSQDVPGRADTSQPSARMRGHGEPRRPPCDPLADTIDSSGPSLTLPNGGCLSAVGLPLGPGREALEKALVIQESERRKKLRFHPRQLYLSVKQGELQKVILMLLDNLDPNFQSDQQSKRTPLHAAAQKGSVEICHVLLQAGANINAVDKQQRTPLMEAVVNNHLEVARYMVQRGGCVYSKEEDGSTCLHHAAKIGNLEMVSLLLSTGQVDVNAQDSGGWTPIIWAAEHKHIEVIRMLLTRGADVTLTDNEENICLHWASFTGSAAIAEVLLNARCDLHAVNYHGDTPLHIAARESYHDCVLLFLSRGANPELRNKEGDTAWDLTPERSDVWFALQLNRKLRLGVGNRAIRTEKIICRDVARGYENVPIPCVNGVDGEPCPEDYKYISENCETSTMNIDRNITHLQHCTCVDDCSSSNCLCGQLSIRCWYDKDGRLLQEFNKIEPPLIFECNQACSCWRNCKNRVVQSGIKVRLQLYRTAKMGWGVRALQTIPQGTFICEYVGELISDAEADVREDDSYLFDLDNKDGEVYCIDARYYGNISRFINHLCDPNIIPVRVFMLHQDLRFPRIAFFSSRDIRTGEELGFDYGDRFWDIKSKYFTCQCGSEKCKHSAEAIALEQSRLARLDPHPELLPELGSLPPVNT
SMILES,Potency,"activity, negative = inhibition"
CC(C)=Cc1oc2ccc([N+](=O)[O-])cc2c1N1CCOCC1,"inconclusive: 22.4 µM [inhibitor, full curve]",–
O=C(CN1CCCC1)NCC12CC3CC(CC(C3)C1)C2,"inconclusive: 79.4 µM [inhibitor, partial curve]",–
CN(C)/C=C/C(=O)c1ccc(F)cc1,–,inactive: -2.36% [at 102 µM]
O=C(c1ccc(S(=O)(=O)NCc2ccco2)cc1)N1CCN(Cc2ccccc2F)CC1,"inconclusive: 89.1 µM [inhibitor, partial curve, poor fit]",–
CC(=O)c1cccc(NC(=O)COC(=O)COc2ccc(Cl)cc2)c1,"inconclusive: 50.1 µM [inhibitor, partial curve, poor fit]",–
CCOC(=O)C(=NCC1CCCO1)NNc1ccccc1Cl (stereo unspecified),–,inconclusive: -99.3% [inhibitor]
COCCN(C(=O)COC(=O)c1ccc(Cl)s1)c1c(N)n(Cc2ccccc2)c(=O)[nH]c1=O,"inconclusive: 79.4 µM [inhibitor, partial curve]",–
COc1cc(CNc2ccc(CNc3ncn[nH]3)cc2)ccc1OCc1ccccc1,"inconclusive: 11.2 µM [inhibitor, full curve]",–
C=CCNCc1cccn1-c1sc2c(c1C#N)CCCC2,"inconclusive: 3.16 µM [inhibitor, single point]",–
COC(=O)c1[nH]c2ccc(F)cc2c1NS(=O)(=O)c1ccc(OC)cc1OC,"inconclusive: 89.1 µM [inhibitor, single point]",–
CC1CC(C)CN(CCOc2ccc(Br)cc2)C1 (stereo unspecified),active: 11.2 µM,–
NC(=O)C1CCN(C(=O)c2ccc(-c3ccccc3Cl)o2)CC1,–,inactive: -1.69%
COc1ccc(OC)c(Nc2nc(NCCC(C)C)nc(N)c2[N+](=O)[O-])c1,"inconclusive: 25.1 µM [inhibitor, partial curve, poor fit]",–
O=C(NCc1cccnc1)c1ccccc1Br,–,inactive: -8.41%
Cc1nc(N2CCC3(CC2)OCCO3)c2nnn(Cc3ccccc3F)c2n1,"inconclusive: 89.1 µM [inhibitor, partial curve, poor fit]",–
Brc1ccc(-c2csc(N/N=C/c3ccco3)n2)cc1,"inconclusive: 39.8 µM [inhibitor, partial curve, poor fit]",–
O=C(OCCNC(=O)c1cc2ccccc2oc1=O)c1cccnc1,"inconclusive: 79.4 µM [inhibitor, single point]",–
Cc1ccccc1Cc1c(C)nc2c(C(=O)NCc3ccco3)cnn2c1C,"inconclusive: 50.1 µM [inhibitor, partial curve, poor fit]",–
COc1ccc(S(=O)(=O)N2CCCC2CNC(=O)C(=O)NC2CC2)cc1 (stereo unspecified),–,inactive: 4.18% [at 0.501 µM]
COc1ccc(NC(=O)CCNS(=O)(=O)c2cccc3nsnc23)cc1Cl,–,inactive: -0.64%
O=C(O)CN1C(=O)/C(=C\c2cc(Br)ccc2OCc2ccc([N+](=O)[O-])cc2)SC1=S,active: 20 µM,–
Cc1cccc(-n2c(C)nc3cc(C(=O)NCCC4=CCCCC4)ccc32)c1,–,inactive: -21.6%
Cn1cccc1/C=N/NC(=O)c1ccncc1,–,inactive: 3.57% [at 102 µM]

SMILES,Potency,"activity, negative = inhibition"
CC(Oc1ncnc2ccccc12)C(=O)Nc1cccc(S(=O)(=O)N2CCOCC2)c1 (stereo unspecified),"inconclusive: 89.1 µM [inhibitor, single point]",–
COc1ccc(NC(=S)NC23CN4CN(CN(C4)C2)C3)c(OC)c1,"inconclusive: 89.1 µM [inhibitor, single point]",–
Cc1ccc(/C=C2\SC(=S)N(c3cccnc3)C2=O)o1,–,inconclusive: -52.8% [inhibitor]
CCOc1ccccc1CN1CCc2nc(Nc3ccc4c(c3)OCCO4)ncc2C1,"inconclusive: 39.8 µM [inhibitor, single point]",–
CCOC(=O)c1c(/N=C/c2cccc(C)c2O)sc2c1CCN(C)C2,"inconclusive: 25.1 µM [inhibitor, single point]",–
CC(C)CN(C(=O)COc1ccc(Br)cc1C=O)C1CCS(=O)(=O)C1 (stereo unspecified),"inconclusive: 89.1 µM [inhibitor, partial curve, poor fit]",–
COc1ccc(OCCCn2cccc2/C=C2/C(=N)N3OC(C)=CC3=NC2=O)cc1,"inconclusive: 20 µM [inhibitor, full curve, poor fit]",–
OC(COc1ccccc1Br)CN1CCNCC1 (stereo unspecified),"inconclusive: 89.1 µM [inhibitor, single point]",–
COc1cc(OC)c(OC)cc1CN1CCC(O)CC1,–,inconclusive: -83.7% [inhibitor]
Cc1ccccc1OCCn1cnc2cc([N+](=O)[O-])ccc2c1=O,–,inactive: -32.7% [at 102 µM]
O=[N+]([O-])c1ccc(NC(=S)N2CCCC2)cc1,–,inactive: 20.8% [at 102 µM]
COc1ccccc1Nc1c([N+](=O)[O-])cc(C)cc1[N+](=O)[O-],active: 6.31 µM,–
CCCCC(=O)Nc1cccn2ncnc12,–,inactive: -4.17% [at 102 µM]
Cc1ccc(/C=C2\SC(=S)N(CC(=O)Nc3cccnc3)C2=O)cc1,"inconclusive: 63.1 µM [inhibitor, single point]",–
COc1ccc(C(=O)CSc2nnc(-c3ccc(C)cc3)o2)cc1,"inconclusive: 20 µM [inhibitor, single point]",–
COc1cc2c(cc1OC)C(CCc1ccccc1)=NCC2,"inconclusive: 31.6 µM [inhibitor, partial curve, poor fit]",–
O=C(CCSc1ccc(Cl)cc1)c1cccs1,"inconclusive: 79.4 µM [inhibitor, single point]",–
Cc1occc1C(=O)N1CCN(c2ccc(Cl)cc2)CC1,–,inactive: -9.2% [at 102 µM]
COC(=O)c1cc(C(=O)OCC(=O)c2ccc[nH]2)cc([N+](=O)[O-])c1,"inconclusive: 39.8 µM [inhibitor, single point]",–
CCOC(=O)CSc1nnc(NCC(=O)OC)c(=O)[nH]1,"inconclusive: 3.16 µM [inhibitor, single point]",–
CC1CCN(C(=O)CN(Cc2ccccc2)S(C)(=O)=O)CC1,"inconclusive: 89.1 µM [inhibitor, single point]",–
COc1cc2ncnc(NCc3ccco3)c2cc1OC,"inconclusive: 12.6 µM [inhibitor, single point]",–
CCn1c(=O)c(C(=O)NNS(=O)(=O)c2ccc(Cl)cc2)c(O)c2ccccc21,–,inactive: 55.5%
